Measurements: PubChem BioAssay AID1347165 (National Center for Advancing Translational Sciences (NCATS), 2019)
Out of some 220,000 compounds screened, about 5,700 (2.6%) were called active. The inconclusive results got no clear call from the source; some entries with a clear call stand among them for comparison. The call rests on the fitted dose curve; in most records, active means well fitted inhibition curve with a large enough effect; inconclusive means small, poorly fitted or top-dose-only effect; inactive means no such curve, though single readings can be large or run the other way. A potency beside an inconclusive call is a rough fit, not a confirmed value.

What follows are compounds tested against Lysine-specific demethylase 5B (Homo sapiens) (UniProt Q9UGL1) (assay: Primary screen for KDM5B Histone Demethylases FDH-coupled qHTS). Conditions: FDH-coupled NADH fluorescence (FDH is formaldehyde dehydrogenase); activity change, negative = inhibition: at 57.7 µM (top of the series) unless noted.
UniProt Q9UGL1, sequence (Q9UGL1 whole entry, looked up): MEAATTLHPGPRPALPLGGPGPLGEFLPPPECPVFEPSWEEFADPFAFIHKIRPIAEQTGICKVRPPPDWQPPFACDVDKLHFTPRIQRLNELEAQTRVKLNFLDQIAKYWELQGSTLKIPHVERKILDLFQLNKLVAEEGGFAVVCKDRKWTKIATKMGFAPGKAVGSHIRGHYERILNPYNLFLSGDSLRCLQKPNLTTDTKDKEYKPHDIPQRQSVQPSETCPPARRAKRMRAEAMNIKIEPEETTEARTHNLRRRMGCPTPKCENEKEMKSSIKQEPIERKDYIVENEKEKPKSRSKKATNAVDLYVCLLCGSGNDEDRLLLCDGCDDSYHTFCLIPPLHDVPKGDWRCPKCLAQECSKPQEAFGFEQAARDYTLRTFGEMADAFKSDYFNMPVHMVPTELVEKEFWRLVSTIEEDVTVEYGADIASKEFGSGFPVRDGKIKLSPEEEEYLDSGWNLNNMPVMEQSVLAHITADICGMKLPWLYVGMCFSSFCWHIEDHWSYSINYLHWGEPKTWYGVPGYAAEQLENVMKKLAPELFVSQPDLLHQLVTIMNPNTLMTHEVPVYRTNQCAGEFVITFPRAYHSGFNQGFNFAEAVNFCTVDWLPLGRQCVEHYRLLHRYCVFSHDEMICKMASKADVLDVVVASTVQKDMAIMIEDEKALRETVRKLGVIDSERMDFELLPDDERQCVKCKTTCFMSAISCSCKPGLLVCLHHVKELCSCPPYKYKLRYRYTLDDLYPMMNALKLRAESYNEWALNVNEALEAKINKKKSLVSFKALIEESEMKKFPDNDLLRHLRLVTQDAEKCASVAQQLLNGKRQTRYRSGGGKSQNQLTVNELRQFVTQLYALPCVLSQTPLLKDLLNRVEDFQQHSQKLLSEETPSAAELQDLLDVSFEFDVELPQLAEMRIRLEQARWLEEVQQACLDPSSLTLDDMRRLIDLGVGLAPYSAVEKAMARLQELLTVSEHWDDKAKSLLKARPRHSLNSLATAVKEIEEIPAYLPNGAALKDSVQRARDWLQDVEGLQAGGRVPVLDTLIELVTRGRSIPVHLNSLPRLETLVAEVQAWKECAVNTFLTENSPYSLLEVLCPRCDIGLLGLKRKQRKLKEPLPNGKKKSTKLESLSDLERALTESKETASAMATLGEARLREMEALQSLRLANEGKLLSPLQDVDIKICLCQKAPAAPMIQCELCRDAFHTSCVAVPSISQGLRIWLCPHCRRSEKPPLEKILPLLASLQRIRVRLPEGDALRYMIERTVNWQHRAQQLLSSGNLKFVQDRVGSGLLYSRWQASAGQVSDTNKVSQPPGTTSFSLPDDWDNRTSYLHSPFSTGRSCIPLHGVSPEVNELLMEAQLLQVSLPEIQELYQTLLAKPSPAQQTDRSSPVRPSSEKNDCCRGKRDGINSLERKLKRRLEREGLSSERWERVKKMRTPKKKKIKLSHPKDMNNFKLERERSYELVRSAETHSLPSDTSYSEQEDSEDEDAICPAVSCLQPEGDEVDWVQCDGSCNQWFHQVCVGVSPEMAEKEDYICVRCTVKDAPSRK
Procedure, shortened: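 KDM5BΔAP (200 nM final) in 50 mM HEPES pH 7.5, 0.01% Tween-20 was preincubated 10 min at RT with compound over a concentration range. Substrate mix (H3K4me3 12.5 µM, α-KG 25 µM, Fe²⁺, ascorbate, NAD⁺, FDH) was added, and NADH fluorescence change over 30 min gave dose-response curves.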
Further: nearly all actives have a fitted effect of over 70% in size.
Potency means the concentration at half of the fitted maximal effect; tags describe the fitted curve by direction and shape.
Wherever activity change, negative = inhibition is given: 0% is about no effect.

Structure (SMILES) | Potency | activity change, negative = inhibition
Cn1c(-c2cccc(Br)c2)cnc1NCc1cccc(F)c1 | inconclusive: 5.01 µM [inhibitor, partial curve, poor fit] | 
COC(=O)c1ccc(COC(=O)c2ccccc2C(=O)c2ccc(Cl)cc2)cc1 |  | inactive: 7.9%
COc1cccc(CCNC(=O)c2c(C)noc2-c2ccco2)c1 |  | inactive: -27%
CN(Cc1ccccc1)c1cnn(Cc2noc(C3CC3)n2)c(=O)c1 |  | inactive: 8.79%
Cc1ccc(-c2cnc(CCC(=O)Nc3cccc(Cl)c3)o2)cc1C | inconclusive: 39.8 µM [inhibitor, single point] | 
Fc1ccc(N/N=C/c2ccc(Cl)cc2Cl)c(F)c1 | inconclusive: 22.4 µM [inhibitor, partial curve, poor fit] | 
CN(C)CCNc1oc(COc2ccccc2)nc1C#N |  | inactive: -18.9%
C=C(C)Cn1c(NCCO)nc2c1c(=O)[nH]c(=O)n2C |  | inactive: -4.44%
CCOc1ccc(-c2cc(NC(=O)Nc3ccccc3Cl)c(C(=O)OC)s2)cc1 | inconclusive: 35.5 µM [inhibitor, single point] | 
Cc1ccc(-c2nnc(Nc3ccc(F)cc3)c3ccccc23)cc1S(=O)(=O)NC(C)C | inconclusive: 44.7 µM [inhibitor, single point] | 
O=S(=O)(NC[C@H]1O[C@@H](CO)[C@@H](O)[C@H]1N1CCCC1)c1cccs1 | inconclusive: 28.2 µM [inhibitor, partial curve] | 
N#Cc1c(C(F)(F)F)cc(-c2cccs2)nc1SCC(=O)Nc1cccc(Br)c1 | inconclusive: 5.62 µM [inhibitor, partial curve, poor fit] | 
COP(=O)(OC)c1nc(-c2ccc(C)cc2)oc1N1CCCCC1 | inconclusive: 31.6 µM [inhibitor, partial curve, poor fit] | 
CCCCOC(=O)CNc1nc(-c2ccccc2)c2cc(C)ccc2n1 |  | inactive: -11.9%
CCOC(=O)COc1ccc(CC)cc1C(=O)c1ccn2nc(-c3ccc(C)cc3)cc2n1 | inconclusive: 28.2 µM [inhibitor, partial curve, poor fit] | 
Cc1ccccc1CSc1nc2c([nH]c3ccccc32)c(=O)n1-c1ccccc1 |  | inconclusive: -30.7% [inhibitor]
N#Cc1ccccc1CN1CCNc2nc(CNc3ccc(F)cc3)n(Cc3ccccc3)c2C1=O | inconclusive: 39.8 µM [inhibitor, single point] | 
COc1ccc(C(=O)NC2CCN(c3cc(-c4ccc(Cl)cc4)[nH]n3)C2)cn1 (centres undefined) | inconclusive: 10 µM [inhibitor, partial curve] | 
Cc1ccccc1NS(=O)(=O)c1ccc(C(=O)NCc2cccnc2)cc1 |  | inactive: -16%
COc1ccccc1N1CCN(C(=O)COCC(=O)NCc2ccccc2)CC1 |  | inactive: 12%
Cc1cccc(CSc2ncc(Cl)c(C(=O)Nc3nnc(C)s3)n2)c1 |  | inconclusive: -38.6% [inhibitor]
Cc1n[nH]c(C)c1C(NC(=O)c1c(C)nc2ccc(Cl)cn12)C(=O)O (centres undefined) | inconclusive: 14.1 µM [inhibitor, partial curve, poor fit] | 

Structure (SMILES) | Potency | activity change, negative = inhibition
O=C(OCCOc1ccc(F)cc1)c1n[nH]c(=O)c2ccccc12 |  | inactive: -4.24%
CNc1cc(C)nc(N2C[C@H]3CN(C(=O)N(C)C)C[C@@]3(C(=O)O)C2)n1 | active: 22.4 µM | 
Cc1nc(-c2ccc(F)cc2)sc1CCNC(=O)c1ccccc1C(F)(F)F |  | inconclusive: -34.3% [inhibitor]
O=C(CCc1ccnc(N2CCCC2)c1)N1CCN(c2ccccc2)CC1 | inconclusive: 17.8 µM [inhibitor, partial curve] | 
Cc1ccc2oc(C(=O)NCC(c3ccc(Cl)cc3)N3CCOCC3)c(C)c2c1 (centres undefined) | inconclusive: 22.4 µM [inhibitor, single point] | 
Cn1cc(CN2CCCC2c2ccccn2)c(-c2ccc(Oc3ccccc3)cc2)n1 (centres undefined) | inconclusive: 35.5 µM [inhibitor, partial curve, poor fit] | 
O=C(OCC1CCCO1)c1cccc(O)c1 (centres undefined) |  | inactive: 27.2%
COCCNC(=O)NC(=O)CN(C)c1ccccc1 |  | inactive: 16.8%
NCCCC(=O)N1CCC2(CC1)CC(NC(=O)CN)c1ccccc12 (centres undefined) | inconclusive: 100 µM [inhibitor, partial curve, poor fit] | 
N#Cc1cccc(NC(=O)C2CCN(S(=O)(=O)c3ccc4c(c3)CCCN4C(=O)C3CCC3)CC2)c1 |  | inactive: -4.93%
CCCN(CCC)C(=O)Cn1c(SCc2cccc(F)c2)nc2cccnc21 | inconclusive: 31.6 µM [inhibitor, partial curve, poor fit] | 
CC(C)Sc1nnc(-c2ccc(S(=O)(=O)N3CCOCC3)cc2)n1C | inconclusive: 28.2 µM [inhibitor, partial curve, poor fit] | 
CC(=O)N/C(=C/c1ccc2c(c1)OCO2)C(=O)NC(Cc1ccccc1)C(=O)O (centres undefined) | inconclusive: 3.16 µM [inhibitor, full curve, poor fit] | 
CC(=O)c1ccc(NC(=O)N2CCc3c(nc(-c4ccc(F)cc4)[nH]c3=O)C2)cc1 | active: 25.1 µM | 
Cc1ccc(C)c(-c2cc3c(=O)n(CCNC(=O)c4ccc5ccccc5n4)ccn3n2)c1 | inconclusive: 35.5 µM [inhibitor, partial curve, poor fit] | 
CCCOc1ccc(NC(=O)c2cccc(OCC)c2)c2cccnc12 |  | inactive: 3.72%
CN(C)c1cc(=O)c2ccnc(-c3ccc(N4CCOCC4)cc3)c2o1 | active: 31.6 µM | 
CCOc1ccccc1NC(=O)Cn1c(N2CCCCC2)nc(C)c(C)c1=O | inconclusive: 15.8 µM [inhibitor, partial curve, poor fit] | 
CNc1cccnc1OC1CCN(C(=O)NCCOC)C1 (centres undefined) | inconclusive: 17.8 µM [inhibitor, partial curve] | 
O=S(=O)(N[C@H]1CO[C@H]2[C@@H]1OC[C@@H]2Nc1nccc(-c2ccc3c(c2)OCO3)n1)c1ccc2ccccc2c1 | active: 28.2 µM | 
Cc1cccc(C)c1NC(=O)CNC(=O)c1nccnc1N | inconclusive: 25.1 µM [inhibitor, partial curve, poor fit] | 
COc1ccc(Br)cc1CNC(=O)c1cnc2sc(N3CCCCCC3)nn2c1=O | inconclusive: 8.91 µM [inhibitor, partial curve, poor fit] | 
